Measured values: publication PMC4336329 (PLoS ONE, 2015)
Among all 310,000 compounds or so, about 2,200 (0.71%) showed an effect of 50% or more. Effects have a minus sign here. The list shows a part of the results.

molecular target: human ether-à-go-go-related gene (hERG) potassium channel (human, UniProt Q12809); assay: primary screen, population patch clamp on CHO cells stably expressing hERG
Sequence (Q12809 whole entry, looked up): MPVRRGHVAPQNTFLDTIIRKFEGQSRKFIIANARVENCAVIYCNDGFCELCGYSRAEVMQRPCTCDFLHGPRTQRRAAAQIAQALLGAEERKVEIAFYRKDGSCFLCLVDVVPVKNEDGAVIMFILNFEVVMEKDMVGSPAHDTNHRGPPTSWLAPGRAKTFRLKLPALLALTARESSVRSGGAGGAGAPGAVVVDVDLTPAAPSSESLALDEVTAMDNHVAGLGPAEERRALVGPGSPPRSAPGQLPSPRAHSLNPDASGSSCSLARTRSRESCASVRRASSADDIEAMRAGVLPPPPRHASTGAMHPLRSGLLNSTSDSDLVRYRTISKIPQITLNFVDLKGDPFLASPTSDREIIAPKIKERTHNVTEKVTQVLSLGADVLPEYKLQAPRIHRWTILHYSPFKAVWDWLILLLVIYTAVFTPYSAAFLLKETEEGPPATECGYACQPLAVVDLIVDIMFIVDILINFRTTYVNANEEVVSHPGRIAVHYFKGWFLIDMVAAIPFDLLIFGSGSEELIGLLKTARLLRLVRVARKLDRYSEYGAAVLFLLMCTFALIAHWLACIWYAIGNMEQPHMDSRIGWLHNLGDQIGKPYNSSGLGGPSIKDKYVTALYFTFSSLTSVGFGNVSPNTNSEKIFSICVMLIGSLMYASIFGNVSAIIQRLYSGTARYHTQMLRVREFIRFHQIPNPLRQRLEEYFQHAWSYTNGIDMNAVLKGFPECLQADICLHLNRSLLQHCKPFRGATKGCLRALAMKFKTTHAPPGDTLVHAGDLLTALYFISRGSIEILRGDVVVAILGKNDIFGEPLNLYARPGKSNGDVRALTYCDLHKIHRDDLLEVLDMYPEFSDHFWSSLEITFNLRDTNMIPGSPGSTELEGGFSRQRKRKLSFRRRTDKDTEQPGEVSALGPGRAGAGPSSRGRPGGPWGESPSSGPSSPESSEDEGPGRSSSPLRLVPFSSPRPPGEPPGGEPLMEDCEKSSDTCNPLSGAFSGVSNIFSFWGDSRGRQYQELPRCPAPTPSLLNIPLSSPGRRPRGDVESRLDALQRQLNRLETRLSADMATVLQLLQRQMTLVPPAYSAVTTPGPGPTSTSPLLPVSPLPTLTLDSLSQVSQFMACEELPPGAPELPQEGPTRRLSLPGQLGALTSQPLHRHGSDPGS

In order of rising “hERG current change (%, negative = inhibition) at 1uM” value:
1. COc1ccc(N2CCN(C(=O)c3cccc(Br)c3)CC2)c([N+](=O)[O-])c1  -85.9%
2. Cc1ccc(N2C(=O)C3CC(c4ccccc4)=C4C5C=CC(C6C(=O)N(c7ccc(C)cc7)C(=O)C56)C4C3C2=O)cc1 (centres unmarked)  -74.5%
3. O=S(=O)(NCC(c1cccnc1)N1CCN(Cc2ccccc2)CC1)c1ccc(Cl)cc1 (centres unmarked)  -60.6%
4. CCOC(=O)C1=C(C)N=c2s/c(=C\c3ccc(O)c([N+](=O)[O-])c3)c(=O)n2C1c1ccccc1OC (centres unmarked)  -32%
5. COc1ccc(C[C@H]2CN3C(=NC[C@@H]3Cc3ccc(O)cc3)N2C[C@H](C)NC(=O)CCC2CCCCC2)cc1  -14.9%
6. COC(=O)c1cccc(NC(=O)c2nn(C)c(=O)c3ccccc23)c1  -11.2%
7. COc1cccc(CN2CCN(Cc3ccc(OC)c(OC)c3)CC2CCO)c1 (centres unmarked)  -8.91%
8. CCc1cc(=O)oc2cc(C)cc(OCC(=O)NC3CCN(Cc4ccccc4)CC3)c12  -7.14%
9. COc1ccc(C(CNC(=O)C(=O)Nc2ccc3c(c2)OCO3)N2CCN(C)CC2)cc1 (centres unmarked)  -4.91%
10. Cc1ccc(S(=O)(=O)NCC(=O)N/N=C/c2ccc(Cl)cc2)cc1  -2.22%
11. Cn1c(=O)c2c(nc(CN3CCN(Cc4ccccc4)CC3)n2CCN2CCOCC2)n(C)c1=O  -2.01%
12. CC(=O)NCCCNc1ccc([N+](=O)[O-])cc1  -1.63%
13. COc1cccc(C(=O)C2CCCN(Cc3ccccn3)C2)c1 (centres unmarked)  -0.481%
14. CCN(CC)S(=O)(=O)c1cccc(C(=O)NCc2ccccc2)c1  -0.29%
15. CCN(CC)CCCN1C=C2C(=O)C(C)(OC(=O)C3CCCC3)C(=O)C=C2C=C1c1ccsc1 (centres unmarked)  -0.231%
16. Cc1c(Cc2ccccc2)c(=O)oc2cc(OCC(=O)N[C@@H](Cc3ccccc3)C(=O)O)ccc12  -0.192%
17. CN1CCN(c2c(F)cc([N+](=O)[O-])c(N)c2Br)CC1  0.789%
18. CCOc1ccc(NCc2nnc(SCC(=O)Nc3cc(C)on3)n2-c2ccc(OC)cc2)cc1  1.27%
19. Cc1nnc(SC(C)C(=O)Nc2ccc(Cl)cn2)n1Cc1ccccc1 (centres unmarked)  1.33%
20. CC(NCc1ccc(Cl)cc1)C(O)c1ccccc1.Cl (centres unmarked)  1.64%
21. CN(C(=O)COC(=O)/C=C/c1cccc([N+](=O)[O-])c1)C1CCS(=O)(=O)C1 (centres unmarked)  2.04%
22. COc1ccc2c(c1OC)C(=O)N1N=C(c3ccc(O)cc3)CC21 (centres unmarked)  3.01%
23. Cn1c(=O)cc(OCC(=O)NCCCN2CCN(Cc3ccccc3)CC2)c2ccccc21  3.12%
24. O=C(Nc1ccc(S(=O)(=O)Nc2ncccn2)cc1)C1=NN(c2ccccc2)C(=O)CC1  4.52%
25. O=C(CSc1nnc(CNc2ccc(F)cc2)n1Cc1ccco1)N1CCOCC1  4.83%
26. CCn1nnc(-c2ccccc2NC(=O)c2cnccn2)n1  4.95%
27. O=C(CCc1nnc2n(Cc3ccc(Cl)cc3)c(=O)c3ccccc3n12)N1CCN(c2ccccn2)CC1  5.12%
28. CCCCn1c(SCC(=O)OCC)nc2c(sc(=S)n2-c2ccccc2OC)c1=O  5.29%
29. CSc1nc2[nH]c3c(c2c2nnnn12)CCCC3  5.45%
30. Cc1cc(C)c(Cc2c(C)nc3c(C(=O)NCc4ccco4)cnn3c2C)c(C)c1  5.71%
31. CN1CCC(OC(=O)c2cccc(Cl)c2)CC1.Cl  6.08%
32. COC(=O)/C=c1/s/c(=C(/C#N)C(=O)NCc2ccccc2)n(-c2ccccc2)c1=O  6.3%
33. CC1CCN(c2c(NCC3CCC(C(=O)NCCc4ccccc4)CC3)c(=O)c2=O)CC1 (centres unmarked)  6.38%
34. O=C(CN1C(=O)/C(=C/c2ccccc2)SC1=S)N1CCN(CCc2ccccn2)CC1  6.83%
35. CCOc1cc(/C=N/NC(=O)c2c(-c3ccccc3)noc2C)ccc1O  7.02%
36. CC(C)c1ccc(N2CCN(C(=O)c3ccccc3NC(=O)/C=C\C(=O)O)CC2)cc1  7.39%
37. Cl.O=C(CN1CCN(C(=O)c2cccs2)CC1)NC1CCCCC1  7.39%
38. CC(C)OC(=O)Cc1nc2sc(-c3ccccc3)cc2c(=O)[nH]1  7.42%
39. O=C(Nc1ccc(Br)cc1)c1ccccc1CC[N+](=O)[O-]  7.7%
40. COCC(C)n1c(C)cc(C(=O)CN2c3cccc4cccc(c34)S2(=O)=O)c1C (centres unmarked)  7.82%
41. CN1CCN(c2ccc(Cl)cc2NC(=O)c2cc(=O)[nH]c3ccccc23)CC1  7.98%
42. CCC1CCCCN1CCCNC(=O)C1CCN(S(=O)(=O)N2CCCCC2)CC1 (centres unmarked)  8.43%
43. O=C(CSc1nnc(-c2ccc(F)cc2)o1)Nc1ccc(S(=O)(=O)N2CCCC2)cc1  8.51%
44. O=c1c2sccc2n(Cc2ccc(F)cc2)c(=O)n1-c1ccc(F)cc1  8.53%
45. Cc1ccccc1NC(=O)N1C2CCCC1CC(NC(=O)C1CC1)C2 (centres unmarked)  8.55%
46. CC(=O)COC(=O)c1ccc2noc(-c3ccccc3)c2c1  8.66%
47. NC(=O)C1CCN(/C=C2\C(=O)NC(=O)N(Cc3ccco3)C2=O)CC1  8.95%
48. CCOc1ccc(CNC(=O)CCn2c(=O)oc3ccccc32)cc1OC  9.27%
49. Cc1ccc(/C=N/NC(=O)CSc2nnc(-c3ccc(Cl)cc3)n2-c2ccc(Cl)cc2)o1  9.27%
50. Cc1ccccc1-c1nn(-c2ccc(F)cc2F)cc1CNCCN(C)C  9.36%
51. CN1CC(=O)N(CC(=O)Nc2ccc(Cl)c(C(F)(F)F)c2)C1=O  9.66%
52. CCOc1cc(NC(=S)Nc2cccc(OC)c2)c(OCC)cc1NC(=O)c1ccc(C)cc1  10.3%
53. Cc1nc(-c2ccc(S(=O)(=O)Oc3ccc(Cl)cc3Cl)s2)cs1  10.4%
54. C=CCN1C(=O)/C(=C\c2cccs2)C(C(=O)OC)=C1C  10.5%
55. Cc1cc(C)c(C2=CSC3=NS(=O)(=O)CCN23)c(C)c1  10.7%
56. COc1cc(OC)cc(C(=O)N[C@H](C(=O)NCc2ccc(F)cc2)C(C)C)c1  10.8%
57. CCc1ccc(C(C)NC(=O)c2ccncc2)cc1 (centres unmarked)  11.4%
58. O=C(CCCc1ccccc1)NCCCN1CCOCC1  11.4%
59. O=C(NCc1ccc2c(c1)OCO2)c1c(Cl)cccc1Cl  11.8%
60. O=C(O)c1ccc(N2CCCCS2(=O)=O)cc1  11.9%
61. O=C(NCc1ccco1)c1ccc2ccccc2n1  12%
62. CN(C(=O)Cn1nc(C(=O)O)c2ccccc2c1=O)C1(C#N)CCCCC1  12%
63. CCCOc1ccc(C2C(C(=O)c3ccc(C)o3)=C(O)C(=O)N2Cc2cccnc2)cc1 (centres unmarked)  12.2%
64. CCC1CCCCN1CCCNC(=O)c1ccc2c(c1)N(Cc1c(F)cccc1Cl)C(=O)CS2 (centres unmarked)  12.2%
65. O=C(O)C(c1ccccc1)N1C(=O)c2cccc3cccc(c23)C1=O (centres unmarked)  12.3%
66. CC(=O)c1ccc(OCCCCCCCOc2ccc(C(C)=O)cc2)cc1  12.9%
67. CCn1c(=O)c2c(nc3n2CCCN3Cc2ccccc2)n(C)c1=O  13%
68. C=CCN(c1ccccc1C(=O)O)S(=O)(=O)c1ccc(C)cc1  13.1%
69. COc1ccc(-c2csc(NC(=O)C3CCCCN3S(=O)(=O)c3ccccc3)n2)cc1 (centres unmarked)  13.3%
70. CC(C)CNS(=O)(=O)c1ccc(CC(C)C)cc1  13.5%
71. CCCC(=O)NCCSC  14.3%
72. CCn1cc(C(=O)NC2CCCCCC2)c(=O)c2ccc(C)nc21  14.3%
73. CCCCNS(=O)(=O)c1cc2c3c(c1)CCN3C(=O)CC2  14.8%
74. O=C(/C=C/c1ccccc1)NNC(=O)c1cccnc1  14.9%
75. Cn1c(=O)oc2cc(S(=O)(=O)NCCC(=O)N3CCN(c4ccccc4)CC3)ccc21  15.1%
76. C=CCc1cc(C(=O)N2CCCCC2)ccc1O  15.2%
77. CCCCOc1ccc(C(=O)NCC(=O)NCC(c2cccs2)N2CCOCC2)cc1 (centres unmarked)  15.4%
78. Fc1ccc(CNCc2ccco2)cc1  15.7%
79. C#CCOCCOCCOCCNc1nc(N2CCOCC2)nc(N2CCN(C(=O)[C@H]([C@@H](C)CC)n3cc(CCCC[NH3+])nn3)CC2)n1.[Cl-]  16.2%
80. COc1ccc(/C=C/C(=O)Oc2cc(O)cc(O)c2)cc1  16.8%
81. O=C(O)/C=C\c1cccc(-n2nnnc2SCc2ccccc2F)c1  16.8%
82. O=C(N/N=C/c1c(F)cccc1Cl)C1CC1  17.1%
83. O=C(COC(=O)c1cc(=O)c2ccccc2o1)NC1CCCCC1  17.8%
84. O=C(Nc1ccc(N2C(=O)C3CCCCC3C2=O)cc1Cl)c1cccs1 (centres unmarked)  19.3%
85. Cc1cc(C)n2cc(CSCC(=O)O)nc2n1  22%
86. COC(=O)c1c(NC(C)=O)sc(C(=O)Nc2ccccc2)c1C  26.1%
